# Data as given in the supplement of paper PMC11417369.
# This is one part of the list.
# System: PfHDP1 homeodomain (GST-tagged)
# Test: gcPBM binding intensity (ln(normalized median fluorescence intensity)); higher = stronger DNA binding
# Summary of the method: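 Binding intensity is the highest Masliner-normalised natural-log median intensity over replicate spots in either probe orientation. To obtain it, GST-tagged P. falciparum DNA-binding domains made in E. coli were incubated for 1 h on an Agilent 4 × 180k array of primer-extended double-stranded 36-bp intergenic genomic probes plus negative controls. Detection used Alexa488 anti-GST antibody with scanning at 488 nm.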
row,Sequence,gcPBM binding intensity (ln)
1,AAAAAAAAAAAAAAAGCACACATATAAATATGAATA [CACACA_site8391],6.66
2,TATATATATATATAATGTACAAACTCCTTTATATAT [XGTACX_site4545],9.17
3,AGGTTGAATATATATTTGTGATTATATTATTTTATT [CACACA_negctrl_site778],6.39
4,CCATGTCAAACATTTGCACACAAAAAAATAAAAATT [CACACA_site4546],9.71
5,GTTTTTTTTATATATTGTACAAATAATATATTATAT [XGTACX_site29],7.42
6,TCATTCAAAAAAAATCAACACACAGTTACATAGCTC [CACACA_site8700],6.61
7,TTTTCAAAAATATACACACACATAAATATATGTATA [CACACA_site777],6.48
8,AAAAAAATTTTAAAATGTACAAATTTTAATATATAT [XGTACX_site7628],6.41
9,ATTCTAAATATGTATATACACACTTTTAATATTCAT [CACACA_site4118],6.93
10,TTTTTTATTTAAAGTAGTACTTTTTAGAAAACAAAA [XGTACX_site6759],6.06
11,TTATTTTAAATTAACACATGCATAATATATGTATAT [TGCATGCA_site597],6.31
12,TTTATGAAACAGTGCACACATAAAAATAAATACATA [CACACA_site5631],10.2
13,TAAAATTATGTAATAACACACATATACAATACATAT [CACACA_site1236],6.72
14,TTATGAATATTGATGTATAAAAAAATATATATGTTA [XGTACX_negctrl_site390],6.45
15,AAAGGTTTGCGTTGTGTGCACAAAATAAATATATAA,10.6
16,GATATATAACTTTTAACACACAAAAAAAAAAAAAAT [CACACA_site7653],6.61
17,GAAAATTCATAAAAATGTACTTATTATATTATTTAT [XGTACX_site2169],5.98
18,CAAAATATTTTTTCCTGTACATAATTCCTATTTCAC [XGTACX_site3590],6.53
19,ATATAATAATATGGTTGTACATAAATAACACATGAA [XGTACX_site6592],6.7
20,ATATATATATATATATGTACATACATATTGTTTGGT [XGTACX_site2284],9.36
21,TAATAATAGAAACACACACACATAGACATATATATA [CACACA_site1307],6.97
22,ATGATTATACAAAATATACACACGTGTAGACAAATA [CACACA_site1175],6.91
23,AATATATATATAAATAATATACCTATATATTTTTTG [XGTACX_negctrl_site407],6.04

row,Sequence,gcPBM binding intensity (ln)
1,AAAAACAATTTAATCACACATATATGTCACAAAGAT [CACACA_site5043],6.81
2,CACTTAAAAAGCTAACGTACAAATACACATATATAA [XGTACX_site1851],6.62
3,ATATTAAATATTATCACACACATAATTATTTCCATA [CACACA_site2334],6.58
4,TTATTTCTAACATGATGTACTTTTATATTATATAAT [XGTACX_site3574],6.67
5,TTTTTTTTATATATCTGTACATATATATATATATAT [XGTACX_site8280],9.15
6,TATTTTCAAAATGTTGTACACACAAAAAAAAAAAAA [CACACA_site8437],6.57
7,ATATACTTTTCAATGTGTACTTATGAATATATATGT [XGTACX_site7972],6.43
8,ATTATTACTATATGTGTACACATCAACTGGTTTGAT [CACACA_site5563],7.39
9,TTGGTAAATATATTTTGAATATAAGAAATATAGACG [CACACA_negctrl_site1634],6.57
10,AGTAGCGGCGGTATCATGCACACGTATAGATTGTAA [CACACA_site1587],7.94
11,CCACGTATACGATGCACACGTATGCTTTATATATAG [CACACA_site4108],8.58
12,TTGTTTATATATATATGTACATATTTTAAGGCATCC [XGTACX_site6976],6.68
13,GTTGAAAAAAATATATGTACGTATATATGTATGTAT [XGTACX_site8201],6.91
14,ATTAAATCCGCACGCACACACACATATTAAGAAAAA [CACACA_site6062],7.6
15,TAATAAATTCATAATTGTACATTGAAGTATTATGCA [XGTACX_site5121],6.23
16,TTTTTTTATTTTGTATGTACATATCATTTGATATTC [XGTACX_site8449],6.9
17,TATATATATAACAGAATGCACTTTATATGTTCATAT [GTGCAC_site9880],8.32
18,TATACGTATACCTATACACACATATATTTATTTATA [CACACA_site6716],6.77
19,AAAAAATACAGACACACACACACACGCATATAAATA [CACACA_site7644],6.86
20,GATATCCTTATATTTGCACACACACCCAATAAAATG [CACACA_site1028],9.87
21,GCAAAGCACAAATATGCATGTAGATATAGAATAATG [TGCATGCA_site382],6.77
22,AACCCAAAATAATTATGTACATATTTTTAAATATAT [XGTACX_site6487],6.78
23,ATAATCCTTGGACACACACACACACTAGTAAATAAA [CACACA_site4423],6.96

row,Sequence,gcPBM binding intensity (ln)
1,TTTGTGTATATAACAGTGCAATATTATAAATATAAA [GTGCAC_site9750],9.76
2,AAAAAAGAAAAAAAGTGTACAATATTTATTACATAT [XGTACX_site2277],6.25
3,TAATTATTTTTATATTGTACAATATGTAAATATATA [XGTACX_site592],6.39
4,AATTAAAAAAAAAAAAAAAAAAAAAAATGAAAAAAA [CACACA_negctrl_site1073],5.6
5,ATAAATAAATAAATCTGTACATATGTATATGTATAT [XGTACX_site4537],6.14
6,AAAAAAAAAAAAAAAAGTACATACAACATTATGAAA [XGTACX_site207],6.51
7,TTTTTTGAATTTAAAAGTACAGGCTTTTACCAAATA [XGTACX_site1356],5.92
8,CTTAAAGGGAAAAATACACACATATAAATATTATGT [CACACA_site2225],6.19
9,ACTTAATTTTTTTTATGTACTTATTTAAAAAATTTT [XGTACX_site2712],6.66
10,TTAGTAGTATTATGTAGTACATAATTATCATATCAT [XGTACX_site817],6.48
11,AACACGCGCAGACACACACACACACGCACATATATA [CACACA_site7104],7.43
12,TTTTTTTTCTTTTTTTTAAGAAATAAATAAATAATT [XGTACX_negctrl_site137],5.55
13,CATTTCTATATAAGCACACACGTGGAATTTTTTTTT [CACACA_site5537],6.82
14,TCATATTATAAATAAATAAATAAATATATATATATA [CACACA_negctrl_site577],8.76
15,AAATCGTAATATATTTGTACTTATTTGAAAAATCCA [XGTACX_site8141],6.11
16,ATTATTTGAACAACAAAAAAAAAGAAAAGAAAAGAA [CACACA_negctrl_site1031],6.37
17,TTTTTTCTTTTTATGTGTACTTATTTTATTTAATAA [XGTACX_site1080],6.54
18,TATATTTCATTATATTGTACAAAATATATATATTAT [XGTACX_site4644],6.59
19,ATGTATATAAATATACGTACATAAATATAAGTATAG [XGTACX_site7155],6.26
20,ATACATGAATAAATATGTACACATATAAAAACATAT [XGTACX_site2740],6.74
21,CATTATATATATTACTAAAAATTTTACCCCTTAGCT [CACACA_negctrl_site302],6.59
22,TAAATTATAAATTGCACACATATTTTTATATTTATA [CACACA_site2976],10.2
23,ATATTTTTAGATTCAGAAAAAAGATTCAACTTACTC [CACACA_negctrl_site1357],6.07

row,Sequence,gcPBM binding intensity (ln)
1,TATTTCATATGAAGAAGTACTATTAATAATTTCCTT [XGTACX_site6587],6.12
2,ATATATGCATATATATGTACATATATATATATATAT [XGTACX_site7403],9.33
3,AATAAATAAAAAATTACACACATATATATAAATATA [CACACA_site3434],6.23
4,ATACGAATAAATTTCGCATGCAGCATATATATCAAT [TGCATGCA_site612],6.5
5,TGTACAAATATGTTGAAAATAAAATTTCAATATATT [XGTACX_negctrl_site13],5.88
6,AACGAAAATAAGAAAAGTACAAAAAATACCAAATAA [XGTACX_site6171],6.55
7,TTCTTTTTTCGACACACACACACAAGAAGATATATA [CACACA_site7456],7.11
8,ATATATATATATAATACACACTTATGAAATGTCTAA [CACACA_site5077],8.79
9,TTAATACATACATTCACACACACTAATTGTATATTT [CACACA_site9362],6.85
10,AAAAAAAAACAGAAAACACACAAATTATCTTAGAAT [CACACA_site309],6.52
11,TTTAATTTTTAATCAGTGCAATATTATATAATATAT,9.62
12,TACAATAATGATTGTTGTACATTATTGATATTTAAA [XGTACX_site2940],5.99
13,AATAATTCATCATATGCACACACAATACCAAAATGT [CACACA_site7945],9.26
14,TATATGAAATATTATGCACACAATATATAATATGAT [CACACA_site936],10.2
15,ATTAATTCGTTTTGTACACACATAATGAATAATTTA [CACACA_site2235],6.44
16,TCATTTTAATTAAAAGTGCAAAAAATAATATAACTA [GTGCAC_site9968],8.81
17,ATATATATATATATATGTACATATATATTGTTGATC [XGTACX_site8893],9.25
18,ATTTAATTCGTACATACACACGCACATATATATATA [CACACA_site8415],8.98
19,ACATATTATTCAAGTGCACACTTTATATTTATGATT [CACACA_site3295],8.81
20,TTTTTTTTTAAAACATAATAAAAAATAAAACAACCT [GTGCAC_negctrl_site92],6.84
